Experimental data from the supplement of paper PMC4604168 (melanoma cell lines).
The other results are listed elsewhere or left out. Single values are uncertain, as repeats are few or missing.

test system: A101D; test: cell count relative to DMSO control; melanoma cells; higher = more viable cells; conditions: library dose: low library concentration; 72 h
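Further: cell number obtained by counting DAPI-stained nuclei in high-throughput microscope images with image analysis software, screen run in 1,536-well plates.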

SMILES	cell count
Cc1ccc(Nc2nccc(N(C)c3ccc4c(C)n(C)nc4c3)n2)cc1S(N)(=O)=O [Pazopanib] + C=CCNC1=C2C[C@@H](C)C[C@H](OC)[C@H](O)[C@@H](C)/C=C(\C)[C@H](OC(N)=O)[C@@H](OC)/C=C\C=C(/C)C(=O)NC(=CC1=O)C2=O [Tanespimycin] (first compound 0.4 µM, partner dose 0.002 µM)	82.5%
CC1(C)CCC(c2ccc(Cl)cc2)=C(CN2CCN(c3ccc(C(=O)NS(=O)(=O)c4ccc(N[C@H](CCN5CCOCC5)CSc5ccccc5)c(S(=O)(=O)C(F)(F)F)c4)cc3)CC2)C1 + Cc1cc(Nc2cc(N3CCN(C)CC3)nc(/C=C/c3ccccc3)n2)n[nH]1 [ENMD2076] (first compound 0.4 µM, partner dose 0.04 µM)	51.7%
O=C(/C=C/c1cccnc1)NCCCCC1CCN(C(=O)c2ccccc2)CC1 + COc1cc(Nc2ncc(F)c(Nc3ccc4c(n3)NC(=O)C(C)(C)O4)n2)cc(OC)c1OC [Tamatinib] (first compound 0.01 µM, partner dose 0.4 µM)	60.3%
Cc1ccc(Nc2nccc(N(C)c3ccc4c(C)n(C)nc4c3)n2)cc1S(N)(=O)=O [Pazopanib] + OCc1c[nH]c2ccccc12 [Indole-3-carbinol] (first compound 0.4 µM, partner dose 0.8 µM)	91.7%
CC1(C)CCC(c2ccc(Cl)cc2)=C(CN2CCN(c3ccc(C(=O)NS(=O)(=O)c4ccc(N[C@H](CCN5CCOCC5)CSc5ccccc5)c(S(=O)(=O)C(F)(F)F)c4)cc3)CC2)C1 + CS(=O)(=O)c1ccc(C(=O)Nc2ccc(Cl)c(-c3ccccn3)c2)c(Cl)c1 [vismodegib] (first compound 0.4 µM, partner dose 1 µM)	48%
CC1(C)CCC(c2ccc(Cl)cc2)=C(CN2CCN(c3ccc(C(=O)NS(=O)(=O)c4ccc(N[C@H](CCN5CCOCC5)CSc5ccccc5)c(S(=O)(=O)C(F)(F)F)c4)cc3)CC2)C1 + Cn1c(=O)n(-c2ccc(C(C)(C)C#N)cc2)c2c3cc(-c4cnc5ccccc5c4)ccc3ncc21 [NVP-BEZ235] (first compound 0.4 µM, partner dose 0.004 µM)	45.5%
CC1(C)CCC(c2ccc(Cl)cc2)=C(CN2CCN(c3ccc(C(=O)NS(=O)(=O)c4ccc(N[C@H](CCN5CCOCC5)CSc5ccccc5)c(S(=O)(=O)C(F)(F)F)c4)cc3)CC2)C1 + C=CCn1c(=O)c2cnc(Nc3ccc(N4CCN(C)CC4)cc3)nc2n1-c1cccc(C(C)(C)O)n1 [MK1775] (first compound 0.4 µM, partner dose 0.02 µM)	26.8%
O=C(/C=C/c1cccnc1)NCCCCC1CCN(C(=O)c2ccccc2)CC1 + OCc1c[nH]c2ccccc12 [Indole-3-carbinol] (first compound 0.01 µM, partner dose 0.8 µM)	104%
